Reference: patent US20240376128A1, “N-CYCLOPROPYLPYRIDO [4, 3-D] PYRIMIDIN-4-AMINE DERIVATIVES AND USES THEREOF” (Jacobio Pharmaceuticals Co., Ltd., priority 2021, published 2024)

How the values were obtained:
[1] = molecular target: T1, K-Ras G12C (Homo sapiens, UniProt P01116, G12C); test: SOS1 catalyzed nucleotide exchange assay (GDP form K-Ras), TR-FRET; conditions: read-out: Biochemical assays, IC50, K-Ras G12C GDP
Experimental: The parameters were F486: Excitation 340 nm, Emission 486 nm, Lag time 100 pas, Integration time 200 pas; F515: Excitation 340 nm, Emission 515 nm, Lag time 100 pas, Integration time 200 pas. TR-FRET ratios for each individual wells were calculated by equation: TR-FRET ratio=(Signal F515/Signal F486)*10000.

[2] = molecular target: T1, K-Ras G12C; test: GTP-K-Ras (GppNp-K-Ras) and cRAF interaction assay, HTRF; conditions: read-out: Biochemical assays, IC50, K-Ras G12C GppNp
Source text: (§1) GppNp is an analog of GTP.

[3] = molecular target: K-Ras G12V (Homo sapiens, UniProt P01116, G12V); test: as above; conditions: read-out: Biochemical assays, IC50, K-Ras G12V GppNp
Source text: as §1

SMILES: CCc1c(F)ccc2cc(O)cc(-c3ncc4c(N(C)[C@@H]5C[C@H]5F)nc(OC[C@@]56CCCN5C[C@H](F)C6)nc4c3F)c12.O=C(O)C(F)(F)F (mixture of isomers) [Compound 15, 5-ethyl-6-fluoro-4-(8-fluoro-4-((trans-2-fluorocyclopropyl)(methyl)amino)-2-(((2R,7aS)-2-fluorotetrahydro-1H-pyrrolizin-7a(5H)-yl)methoxy)pyrido[4,3-d]pyrimidin-7-yl)naphthalen-2-ol 2,2,2-trifluoroacetic acid]
- IC50 [1]: 3.88 nM
- IC50 [2]: > 1000 nM
- IC50 [3]: 568 nM
